Test results: the supplement of paper PMC8728848
The other results are listed elsewhere or left out.

Key:
Test in all cases: glycan array binding signal (z-score within array); higher = stronger binding
Conditions in all cases: glycan notation: IUPAC condensed, linker removed
[1] = biological target: Neu5Ac(a2-3)Gal(b1-4)Glc
Outline: (§1)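 Arrays were curated from the Consortium for Functional Glycomics database, 3228 in total, and kept only where the protein sequence was available. Binding is expressed as a within-array Z-score. This score was averaged across arrays of the same protein sequence at different concentrations or buffers and across linkers, and negative values can be read as non-binding.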

[2] = biological target: Neu5Ac(a2-3)Gal(b1-4)GlcNAc
Outline: as §1

[3] = biological target: Neu5Ac(a2-3)Gal(b1-4)GlcNAc(b1-2)Man
Outline: as §1

[4] = biological target: Neu5Ac(a2-3)Gal(b1-4)GlcNAc(b1-2)Man(a1-3)[GlcNAc(b1-4)][Neu5Ac(a2-3)Gal(b1-4)GlcNAc(b1-2)Man(a1-6)]Man(b1-4)GlcNAc(b1-4)GlcNAc
Outline: as §1

[5] = biological target: Neu5Ac(a2-3)Gal(b1-4)GlcNAc(b1-2)Man(a1-3)[Neu5Ac(a2-3)Gal(b1-4)GlcNAc(b1-2)Man(a1-6)]Man(b1-4)GlcNAc(b1-4)GlcNAc
Outline: as §1

[6] = biological target: Neu5Ac(a2-3)Gal(b1-4)GlcNAc(b1-2)Man(a1-3)[Neu5Ac(a2-3)Gal(b1-4)GlcNAc(b1-2)Man(a1-6)]Man(b1-4)GlcNAc(b1-4)[Fuc(a1-6)]GlcNAc
Outline: as §1

[7] = biological target: Neu5Ac(a2-3)Gal(b1-4)GlcNAc(b1-2)Man(a1-3)[Neu5Ac(a2-6)Gal(b1-4)GlcNAc(b1-2)Man(a1-6)]Man(b1-4)GlcNAc(b1-4)GlcNAc
Outline: as §1

[8] = biological target: Neu5Ac(a2-3)Gal(b1-4)GlcNAc(b1-2)[Neu5Ac(a2-3)Gal(b1-4)GlcNAc(b1-4)]Man(a1-3)[GlcNAc(b1-4)][Neu5Ac(a2-3)Gal(b1-4)GlcNAc(b1-2)[Neu5Ac(a2-3)Gal(b1-4)GlcNAc(b1-6)]Man(a1-6)]Man(b1-4)GlcNAc(b1-4)GlcNAc
Outline: as §1

[9] = biological target: Neu5Ac(a2-3)Gal(b1-4)GlcNAc(b1-2)[Neu5Ac(a2-3)Gal(b1-4)GlcNAc(b1-4)]Man(a1-3)[GlcNAc(b1-4)][Neu5Ac(a2-3)Gal(b1-4)GlcNAc(b1-4)Man(a1-6)]Man(b1-4)GlcNAc(b1-4)GlcNAc
Outline: as §1

[10] = biological target: Neu5Ac(a2-3)Gal(b1-4)GlcNAc(b1-2)[Neu5Ac(a2-3)Gal(b1-4)GlcNAc(b1-6)]Man(a1-6)[Neu5Ac(a2-3)Gal(b1-4)GlcNAc(b1-2)Man(a1-3)]Man(b1-4)GlcNAc(b1-4)GlcNAc
Outline: as §1

[11] = biological target: Neu5Ac(a2-3)Gal(b1-4)GlcNAc(b1-2)[Neu5Ac(a2-3)Gal(b1-4)GlcNAc(b1-6)]Man(a1-6)[Neu5Ac(a2-3)Gal(b1-4)GlcNAc(b1-2)Man(a1-3)][GlcNAc(b1-4)]Man(b1-4)GlcNAc(b1-4)GlcNAc
Outline: as §1

[12] = biological target: Neu5Ac(a2-3)Gal(b1-4)GlcNAc(b1-3)Gal
Outline: as §1

[13] = biological target: Neu5Ac(a2-3)Gal(b1-4)GlcNAc(b1-3)Gal(b1-3)GlcNAc
Outline: as §1

[14] = biological target: Neu5Ac(a2-3)Gal(b1-4)GlcNAc(b1-3)Gal(b1-4)GlcNAc
Outline: as §1

[15] = biological target: Neu5Ac(a2-3)Gal(b1-4)GlcNAc(b1-3)Gal(b1-4)GlcNAc(b1-2)Man(a1-3)[Neu5Ac(a2-3)Gal(b1-4)GlcNAc(b1-3)Gal(b1-4)GlcNAc(b1-2)Man(a1-6)]Man(b1-4)GlcNAc(b1-4)GlcNAc
Outline: as §1

[16] = biological target: Neu5Ac(a2-3)Gal(b1-4)GlcNAc(b1-3)Gal(b1-4)GlcNAc(b1-3)Gal(b1-4)GlcNAc
Outline: as §1

[17] = biological target: Neu5Ac(a2-3)Gal(b1-4)GlcNAc(b1-3)Gal(b1-4)GlcNAc(b1-3)Gal(b1-4)GlcNAc(b1-2)Man(a1-3)[Neu5Ac(a2-3)Gal(b1-4)GlcNAc(b1-3)Gal(b1-4)GlcNAc(b1-3)Gal(b1-4)GlcNAc(b1-2)Man(a1-6)]GalNAc
Outline: as §1

[18] = biological target: Neu5Ac(a2-3)Gal(b1-4)GlcNAc(b1-3)Gal(b1-4)GlcNAc(b1-3)GalNAc
Outline: as §1

[19] = biological target: Neu5Ac(a2-3)Gal(b1-4)GlcNAc(b1-3)Gal(b1-4)GlcNAc(b1-3)[Neu5Ac(a2-3)Gal(b1-4)GlcNAc(b1-3)Gal(b1-4)GlcNAc(b1-6)]GalNAc
Outline: as §1

[20] = biological target: Neu5Ac(a2-3)Gal(b1-4)GlcNAc(b1-3)Gal(b1-4)GlcNAc(b1-6)[Gal(b1-3)]GalNAc
Outline: as §1

[21] = biological target: Neu5Ac(a2-3)Gal(b1-4)GlcNAc(b1-3)Gal(b1-4)[Fuc(a1-3)]GlcNAc
Outline: as §1

[22] = biological target: Neu5Ac(a2-3)Gal(b1-4)GlcNAc(b1-3)GalNAc
Outline: as §1

[23] = biological target: Neu5Ac(a2-3)Gal(b1-4)GlcNAc(b1-3)[Neu5Ac(a2-3)Gal(b1-4)GlcNAc(b1-6)]GalNAc
Outline: as §1

[24] = biological target: Neu5Ac(a2-3)Gal(b1-4)GlcNAc(b1-6)GalNAc
Outline: as §1

[25] = biological target: Neu5Ac(a2-3)Gal(b1-4)GlcNAc(b1-6)[Gal(b1-3)]GalNAc
Outline: as §1

[26] = biological target: Neu5Ac(a2-3)Gal(b1-4)GlcNAc(b1-6)[Neu5Ac(a2-3)Gal(b1-3)]GalNAc
Outline: as §1

[27] = biological target: Neu5Ac(a2-3)Gal(b1-4)GlcNAc6S
Outline: as §1

[28] = biological target: Neu5Ac(a2-3)Gal(b1-4)[Fuc(a1-3)]GlcNAc
Outline: as §1

[29] = biological target: Neu5Ac(a2-3)Gal(b1-4)[Fuc(a1-3)]GlcNAc(b1-2)Man
Outline: as §1

[30] = biological target: Neu5Ac(a2-3)Gal(b1-4)[Fuc(a1-3)]GlcNAc(b1-3)Gal
Outline: as §1

[31] = biological target: Neu5Ac(a2-3)Gal(b1-4)[Fuc(a1-3)]GlcNAc(b1-3)Gal(b1-4)GlcNAc
Outline: as §1

[32] = biological target: Neu5Ac(a2-3)Gal(b1-4)[Fuc(a1-3)]GlcNAc(b1-3)Gal(b1-4)[Fuc(a1-3)]GlcNAc(b1-3)Gal(b1-4)[Fuc(a1-3)]GlcNAc
Outline: as §1

[33] = biological target: Neu5Ac(a2-3)Gal(b1-4)[Fuc(a1-3)]GlcNAc(b1-3)GalNAc
Outline: as §1

[34] = biological target: Neu5Ac(a2-3)Gal(b1-4)[Fuc(a1-3)]GlcNAc(b1-6)[Gal(b1-3)]GalNAc
Outline: as §1

[35] = biological target: Neu5Ac(a2-3)Gal(b1-4)[Fuc(a1-3)]GlcNAc(b1-6)[Neu5Ac(a2-3)Gal(b1-3)]GalNAc
Outline: as §1

[36] = biological target: Neu5Ac(a2-3)Gal(b1-4)[Fuc(a1-3)]GlcNAc6S
Outline: as §1

[37] = biological target: Neu5Ac(a2-3)Gal6S(b1-4)GlcNAc
Outline: as §1

[38] = biological target: Neu5Ac(a2-3)Gal6S(b1-4)[Fuc(a1-3)]GlcNAc
Outline: as §1

B1: LSL-150 (Laetiporus sulphureus), Q7Z8V1 (protein)
chain: MTDIYIPPEGLYFRLLGFASRQVIFARNSPSPDVGLSPVNDQATDQYFSLIYGTGEHAGLYAIKSKATGKVLFSRRPAEPYVGQIDGDGRYPDNWFKIEPGKTYLSKYFRLVQPSTGTALVSRTHLQPYFWNHPQTEVFDDQYFTFLFEDHHHHHH
- glycan array binding signal (z-score) [1]: -0.191
- glycan array binding signal (z-score) [2]: -0.208
- glycan array binding signal (z-score) [3]: -0.198
- glycan array binding signal (z-score) [4]: -0.208
- glycan array binding signal (z-score) [5]: -0.196
- glycan array binding signal (z-score) [6]: -0.196
- glycan array binding signal (z-score) [7]: -0.211
- glycan array binding signal (z-score) [8]: -0.202
- glycan array binding signal (z-score) [9]: -0.209
- glycan array binding signal (z-score) [10]: -0.203
- glycan array binding signal (z-score) [11]: -0.208
- glycan array binding signal (z-score) [12]: -0.211
- glycan array binding signal (z-score) [13]: -0.214
- glycan array binding signal (z-score) [14]: -0.169
- glycan array binding signal (z-score) [15]: -0.077
- glycan array binding signal (z-score) [16]: 1.07
- glycan array binding signal (z-score) [17]: -0.131
- glycan array binding signal (z-score) [18]: -0.176
- glycan array binding signal (z-score) [19]: -0.103
- glycan array binding signal (z-score) [20]: -0.203
- glycan array binding signal (z-score) [21]: -0.209
- glycan array binding signal (z-score) [22]: -0.209
- glycan array binding signal (z-score) [23]: -0.208
- glycan array binding signal (z-score) [24]: -0.21
- glycan array binding signal (z-score) [25]: -0.21
- glycan array binding signal (z-score) [26]: -0.206
- glycan array binding signal (z-score) [27]: -0.206
- glycan array binding signal (z-score) [28]: -0.208
- glycan array binding signal (z-score) [29]: -0.211
- glycan array binding signal (z-score) [30]: -0.211
- glycan array binding signal (z-score) [31]: -0.2
- glycan array binding signal (z-score) [32]: -0.203
- glycan array binding signal (z-score) [33]: -0.209
- glycan array binding signal (z-score) [34]: -0.203
- glycan array binding signal (z-score) [35]: -0.203
- glycan array binding signal (z-score) [36]: -0.201
- glycan array binding signal (z-score) [37]: -0.206
- glycan array binding signal (z-score) [38]: -0.213
